According to US9777034B2, “Modular synthesis of amphiphilic Janus glycodendrimers and their self-assembly into glycodendrimersomes” (The Trustees of The University of Pennsylvania, priority 2013, dated 2017):

Test: Micropipette aspiration of giant glycodendrimersomes
Conditions: giant vesicles prepared by hydration

Substance: (3,4)12G1-PE-spacer-TRZ-(galactose)2 [Compound 50aa]
- behaviour in micropipette aspiration: buckles in response to the applied suction pressure
